{"source": "PubChem BioAssay AID504832", "about": "(National Center for Advancing Translational Sciences (NCATS), 2011)", "note": "The campaign covered roughly 310,000 compounds. About 18,000 (5.8%) were called active. The shares of active, inactive and inconclusive entries below differ from those in the screen. Calls follow the shape of the dose curve; as a rule, active = well fitted inhibition curve with a large enough effect; inconclusive = small, poorly fitted or top-dose-only effect, or another doubt; inactive = no such curve, though single readings can be large or run the other way. No potency is given beside an inconclusive call; the fits are too rough. Potency is read from the fitted curve at half-maximal effect; tags tell the direction and shape of the fitted curve.", "data": [{"test": "Primary qHTS for delayed death inhibitors of the malarial parasite plastid, 48 hour incubation", "details": "P. falciparum luciferase growth in erythrocytes; series mostly up to 28.7 µM", "procedure,_shortened": "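Luciferase-expressing P. falciparum in infected erythrocytes (2% hematocrit, 0.1% parasitemia final) in RPMI 1640/0.5% Albumax were exposed to compound for 48 hours at 37 C, 5% CO2; growth read as luminescence.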", "values": [{"smiles": "O=C(CN1C2=NCCCN2c2ccccc21)c1ccc(Br)s1", "Potency": "inconclusive [inhibitor, partial curve]"}, {"smiles": "Cc1cccc([C@@H]2[C@@H]3C(=O)N(Cc4ccccc4)C(=O)[C@@H]3[C@]3(Cc4ccc(Cl)cc4)C(=O)N(c4ccc(Br)cc4)C(=O)N23)c1", "Potency": "inconclusive [inhibitor, partial curve, poor fit]"}, {"smiles": "COc1ccc(NC(=O)COc2cccc(C(F)(F)F)c2)cn1", "Potency": "inconclusive [inhibitor, single point]"}, {"smiles": "CN(c1ccccn1)c1ncnc2[nH]ncc12", "Potency": "inconclusive [inhibitor, full curve, poor fit]"}, {"smiles": "Cc1ccc(S(=O)(=O)N(CC(=O)N2CCc3ccccc3C2)c2cccc(Cl)c2)cc1", "Potency": "inconclusive [inhibitor, full curve]"}, {"smiles": "COc1ccc(-c2noc(CCc3ccccc3)n2)cc1", "Potency": "inactive"}, {"smiles": "COc1ccc(NC(C)=O)cc1NC(=O)c1cccc(S(=O)(=O)N2CCc3ccccc32)c1", "Potency": "active: 13.1 µM"}, {"smiles": "O=C(NCc1ccc2[nH]c3c(c2c1)CCCC3)N1CCOCC1", "Potency": "inconclusive [inhibitor, partial curve]"}, {"smiles": "COC(=O)c1ccccc1NC(=O)CN(C)S(=O)(=O)c1cc(C)ccc1OC", "Potency": "inconclusive [inhibitor, single point]"}, {"smiles": "O=C(Nc1nccs1)C1CC2CCC1C2", "note": "(configuration not stated)", "Potency": "inactive"}, {"smiles": "CCCn1cnc2c(=S)nc(N)[nH]c21", "Potency": "inconclusive [inhibitor, full curve, poor fit]"}, {"smiles": "COc1ccc(C2NCCc3c2[nH]c2ccccc32)cc1CSc1nc2ccccc2s1", "note": "(configuration not stated)", "Potency": "inconclusive [inhibitor, single point]"}, {"smiles": "CCC(=O)OCC(=O)Nc1ccc2c(c1)OCO2", "Potency": "inactive"}, {"smiles": "FC(F)(F)c1cnc(Sc2nnc(-c3cccs3)n2CC2CCCO2)c(Cl)c1", "note": "(configuration not stated)", "Potency": "active: 7.38 µM"}, {"smiles": "N#CC(C#N)=C(Nc1ccc(F)cc1)SCc1cccc(Br)c1", "Potency": "inconclusive [inhibitor, single point]"}, {"smiles": "CCOC(=O)/C=C/c1nc(C(=O)OCC)c(C)c(=O)[nH]1", "Potency": "inconclusive [inhibitor, partial curve, poor fit]"}, {"smiles": "C/C(CCC(C)C)=N\\Nc1cc(C)c2ccccc2n1", "Potency": "inconclusive [inhibitor, single point]"}, {"smiles": "COC(=O)c1sc(S(=O)(=O)NCc2ccccc2)c(C(=O)OC)c1C", "Potency": "inactive"}, {"smiles": "CN(Cc1ccccc1)C1CC(=O)N(c2ccc(C(=O)O)cc2)C1=O", "note": "(configuration not stated)", "Potency": "inactive"}, {"smiles": "CC(C)C[C@H](NC(=O)[C@@H]1Cc2ccccc2CN1C(=O)OC(C)(C)C)C(=O)NCC1CCC(C(=O)O)CC1", "note": "(some centres not stated)", "Potency": "inconclusive [inhibitor, single point]"}, {"smiles": "CCCCn1c(O)c(C(CC)=NCc2ccc3c(c2)OCO3)c(=O)[nH]c1=O", "Potency": "inconclusive [inhibitor, single point]"}, {"smiles": "CCCCCn1c(SCC(=O)OCC)nc2cc(C(=O)N3CCC(C(N)=O)CC3)ccc2c1=O", "Potency": "inactive"}, {"smiles": "Cc1cc(C(=O)COC(=O)c2cccc(S(=O)(=O)N(C)C)c2)c(C)n1CC1CCCO1", "note": "(configuration not stated)", "Potency": "inactive"}, {"smiles": "O=C(O)COc1ccccc1/C=N/Nc1ccc(S(=O)(=O)N2CCOCC2)cc1[N+](=O)[O-]", "Potency": "inconclusive [inhibitor, single point]"}, {"smiles": "O=[N+]([O-])c1ccc(F)cc1Oc1nc(-c2cccnc2)nc2ccccc12", "Potency": "inconclusive [inhibitor, single point]"}, {"smiles": "CC(C)Cc1ccc(C(=O)Nc2ccc(Cc3ccncc3)cc2)o1", "Potency": "inactive"}, {"smiles": "O=C(Nc1cccc(C(=O)O)c1)/C(=C\\c1ccccc1Cl)NC(=O)c1ccco1", "Potency": "inactive"}, {"smiles": "O=C(c1ccccc1Br)N1N=C(c2ccccc2)CC1c1ccccc1F", "note": "(configuration not stated)", "Potency": "inconclusive [inhibitor, single point]"}, {"smiles": "COc1cccc(/C=N/NC(=O)C(C)Cn2cnc3ccccc32)c1", "note": "(configuration not stated)", "Potency": "inactive"}, {"smiles": "CC(/C=C1\\SC(=S)N(NC(=O)c2ccccc2C)C1=O)=C\\c1ccccc1", "Potency": "inconclusive [inhibitor, single point]"}, {"smiles": "C=CCN(c1ccccc1)S(=O)(=O)c1ccc(Cl)c(C(=O)OCC(=O)c2[nH]c(C)c(C(C)=O)c2C)c1", "Potency": "inactive"}, {"smiles": "C=CCn1c(O)c(C(CC)=NC(C)c2ccccc2)c(=O)[nH]c1=O", "note": "(configuration not stated)", "Potency": "inconclusive [inhibitor, full curve, poor fit]"}, {"smiles": "O=C(Nc1ccc(Cl)cc1Cl)c1ccc(Br)o1", "Potency": "inactive"}, {"smiles": "COc1ccc(C2c3c(-c4ccccc4)n[nH]c3C(=O)N2c2ccc(C(=O)O)cc2)cc1", "note": "(configuration not stated)", "Potency": "inconclusive [inhibitor, single point]"}, {"smiles": "CCNC(=O)NC(=O)C(C)Sc1ccc2c(c1)OCCO2", "note": "(configuration not stated)", "Potency": "inactive"}, {"smiles": "CC(NC(=S)NCCc1ccccc1)C(c1cccs1)N1CCN(Cc2ccccc2)CC1", "note": "(configuration not stated)", "Potency": "inconclusive [inhibitor, partial curve, poor fit]"}, {"smiles": "CC1(C)C2CCC(C2)C1(C)NC(=O)CNC1CCCCC1", "note": "(configuration not stated)", "Potency": "inconclusive [inhibitor, single point]"}, {"smiles": "O=C(NC1CCCC1)c1ccccc1-c1nc2ccccc2[nH]1", "Potency": "inactive"}, {"smiles": "CCCNC(=O)c1onc(CSc2ccc(Cl)cc2)c1C(=O)NCC1CC1", "Potency": "inconclusive [inhibitor, single point]"}, {"smiles": "CCOc1cccc2sc(N(CCCN(C)C)C(=O)c3ccc(S(=O)(=O)N(CC)Cc4ccccc4)cc3)nc12", "Potency": "inconclusive [inhibitor, partial curve, poor fit]"}, {"smiles": "COc1ccccc1-n1cnc2cc(C(=O)N3CCOCC3)ccc21", "Potency": "inactive"}, {"smiles": "CCCCn1c(-c2ccccc2)nc2c(=O)n(C)c(=O)[nH]c21", "Potency": "inactive"}, {"smiles": "Cc1cccc(-c2ncc(CN3CCCC(CO)(Cc4ccccc4C)C3)cn2)c1", "note": "(configuration not stated)", "Potency": "inconclusive [inhibitor, single point]"}, {"smiles": "Cc1ccccc1C(=O)N1CCC(C(N)=O)CC1", "Potency": "inactive"}, {"smiles": "COc1ccccc1C(=O)Nc1cccc(Oc2c(F)c(F)c(F)c(F)c2F)c1", "Potency": "inconclusive [inhibitor, partial curve]"}, {"smiles": "COCCNC(=O)C(=O)N/N=C/c1ccccc1C(F)(F)F", "Potency": "inactive"}, {"smiles": "Clc1ccc(Cn2cc(/C=N/n3cnnc3)c3ccccc32)c(Cl)c1", "Potency": "inconclusive [inhibitor, single point]"}, {"smiles": "Cc1ccc(OC(=O)C(F)(F)F)c2c1NCCC2", "Potency": "inconclusive [inhibitor, partial curve, poor fit]"}, {"smiles": "CCCCCCCCn1ccc(=N)cc1", "Potency": "active: 0.37 µM"}, {"smiles": "COc1ccc(OC(=O)N2CCOCC2)cc1", "Potency": "inactive"}, {"smiles": "O=C1N(c2ccccc2)C[C@@H]2C[C@@H](c3cccc4c3OCO4)N3CCC[C@@]123", "Potency": "inconclusive [inhibitor, single point]"}, {"smiles": "Cc1nnc(SCC(=O)N2CCC(c3noc4ccc(F)cc34)CC2)s1", "Potency": "inconclusive [inhibitor, single point]"}, {"smiles": "CCC(=O)N1CCc2cc(Br)cc(S(=O)(=O)C3(C(=O)OC)CC3)c21", "Potency": "active: 4.15 µM"}, {"smiles": "CCNc1nc(NC(C)C)nc(OCCOC(=O)c2ccccc2)n1", "Potency": "inconclusive [inhibitor, single point]"}, {"smiles": "CCCCOc1ccc(C(=O)N(Cc2ccccc2)C2CCS(=O)(=O)C2)cc1", "note": "(configuration not stated)", "Potency": "inconclusive [inhibitor, single point]"}, {"smiles": "COc1ccc(NS(=O)(=O)c2ccc(N3CCCC3)c(NC(=S)Nc3cccc(S(=O)(=O)N(C)C)c3)c2)cc1", "Potency": "inconclusive [inhibitor, single point]"}, {"smiles": "COC(=O)C[C@](O)(CCCC(C)(C)O)C(=O)O[C@@H]1C(OC)=C[C@]23CCCN2CCc2cc4c(cc2[C@H]13)OCO4", "Potency": "active: 0.0095 µM"}, {"smiles": "COc1ccc(/C=N/NC(=O)c2ccco2)cc1COc1ccc(F)cc1", "Potency": "active: 9.28 µM"}, {"smiles": "O=C(Nc1ccc(N2CCOCC2)cc1)c1ccc(Cl)c(S(=O)(=O)N2CCCCC2)c1", "Potency": "active: 10.4 µM"}, {"smiles": "COc1ccc(-c2csc(N3CCC(c4ccccc4)C3)n2)cc1", "note": "(configuration not stated)", "Potency": "inactive"}, {"smiles": "COc1ccc(N2CCN(Cc3nc4c(c(=O)[nH]c(=O)n4C)n3CCCc3ccccc3)CC2)cc1", "Potency": "inconclusive [inhibitor, single point]"}, {"smiles": "COc1cccc(NCc2ccc([N+](=O)[O-])s2)c1", "Potency": "inactive"}, {"smiles": "COc1cccc(NS(=O)(=O)c2ccc3c(c2)NC(=O)CC(=O)N3)c1", "Potency": "inconclusive [inhibitor, partial curve, poor fit]"}, {"smiles": "C=CCC(CC)C(=O)NC(=O)N1CCCc2ccccc21", "note": "(configuration not stated)", "Potency": "inactive"}, {"smiles": "CC(=O)Nc1ccc(C(=O)Nc2cccc(-c3cnc4ccccc4n3)c2)cc1", "Potency": "inactive"}, {"smiles": "COC(=O)c1ccccc1NC(=O)c1ccccc1N(C)S(=O)(=O)c1ccccc1", "Potency": "inconclusive [inhibitor, single point]"}, {"smiles": "CCOC(=O)c1c(C)c(C(=O)O)n(C)c1C", "Potency": "inactive"}, {"smiles": "CCOc1ccc(N(Cc2ccccc2F)C2=NC3CS(=O)(=O)CC3S2)cc1", "note": "(configuration not stated)", "Potency": "inconclusive [inhibitor, single point]"}, {"smiles": "CC(C)c1ccc(NC(=O)C(c2ccccc2)N2CCN(C(=O)c3ccco3)CC2)cc1", "note": "(configuration not stated)", "Potency": "active: 9.28 µM"}, {"smiles": "COc1ccc(OC)c(NC(=O)Cc2ccc(NC3=NC4CS(=O)(=O)CC4S3)cc2)c1", "note": "(configuration not stated)", "Potency": "inactive"}, {"smiles": "c1ccc(CN2CCN(c3nc(-c4ccccc4)nc(-n4ccnc4)n3)CC2)cc1", "Potency": "active: 3.7 µM"}, {"smiles": "CCN(CC)C(=O)c1cn(-c2cccc(OC)c2)c(=O)c2ccccc12", "Potency": "inactive"}]}]}
